In the supplement of paper PMC7826260:
Some of the results follow. One pool of 16,384 single-stranded DNAs met each Rep nickase domain in vitro for 1 h at 37 °C with 3 µM enzyme; only the middle of the 90-letter strands is printed. The score is log2 (uncut reads / reads without enzyme); uncut sequences lie near 0, cut ones below; no hit call is given. Counts are relative to all reads; uncut strands gain when others are lost, and binding without cutting may add a little.

Key:
Test in all cases: uncleaved DNA left, log2 of reads against the no-enzyme library (log2 ratio); higher = less cleavage (more negative = more Rep cleavage of the k-mer); sequences stand for … in CTCGTCCG…ACCGGAGA
[1] = system: T1, Rep nickase domain of Muscovy duck circovirus
T1 sequence (residues 1-111 of Rep, tag left off): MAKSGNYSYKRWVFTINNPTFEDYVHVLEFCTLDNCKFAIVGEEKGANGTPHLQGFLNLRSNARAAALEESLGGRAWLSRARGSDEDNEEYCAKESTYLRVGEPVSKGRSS
Protocol: (§1)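 A pool of 90-nt single-stranded DNAs with seven random bases just before the constant AC of the nick site (name = the seven bases) was cut by 3 µM recombinant His6-SUMO-tagged Rep nickase domain (300 nM DNA, 50 mM HEPES pH 8.0, 50 mM NaCl, 1 mM MnCl2, 1 h, 37 °C, three replicates). Uncut DNA was amplified and sequenced.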

[2] = system: T2, Rep nickase domain of banana bunchy top virus
T2 sequence (residues 1-94 of Rep, tag left off): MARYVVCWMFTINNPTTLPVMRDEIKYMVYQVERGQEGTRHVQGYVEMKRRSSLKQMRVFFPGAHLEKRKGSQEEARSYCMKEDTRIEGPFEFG
Protocol: as §1

[3] = system: T3, Rep nickase domain of cabbage leaf curl virus
T3 sequence (residues 1-116 of Rep, tag left off): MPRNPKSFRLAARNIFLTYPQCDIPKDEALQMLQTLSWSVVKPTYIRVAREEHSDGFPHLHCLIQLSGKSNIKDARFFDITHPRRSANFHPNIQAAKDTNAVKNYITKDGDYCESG
Protocol: as §1

[4] = system: T4, Rep nickase domain of chickpea chlorotic dwarf virus
T4 sequence (residues 1-124 of Rep, tag left off): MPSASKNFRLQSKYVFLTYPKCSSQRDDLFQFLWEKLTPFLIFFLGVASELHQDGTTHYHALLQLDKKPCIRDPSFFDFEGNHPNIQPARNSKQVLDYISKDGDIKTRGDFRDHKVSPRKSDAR
Protocol: as §1

[5] = system: T5, Rep nickase domain of faba bean necrotic yellows virus
T5 sequence (residues 1-98 of Rep, tag left off): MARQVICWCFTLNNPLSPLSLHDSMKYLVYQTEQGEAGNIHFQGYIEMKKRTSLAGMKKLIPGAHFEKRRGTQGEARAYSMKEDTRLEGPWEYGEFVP
Protocol: as §1

[6] = system: T6, Rep nickase domain of maize striate mosaic virus
T6 sequence (residues 1-117 of Rep, tag left off): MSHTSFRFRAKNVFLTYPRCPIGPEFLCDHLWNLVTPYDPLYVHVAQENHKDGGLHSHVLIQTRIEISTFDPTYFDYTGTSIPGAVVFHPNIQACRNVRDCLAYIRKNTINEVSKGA
Protocol: as §1

[7] = system: T7, Rep nickase domain of porcine circovirus 2
T7 sequence (residues 2-116 of Rep, tag left off): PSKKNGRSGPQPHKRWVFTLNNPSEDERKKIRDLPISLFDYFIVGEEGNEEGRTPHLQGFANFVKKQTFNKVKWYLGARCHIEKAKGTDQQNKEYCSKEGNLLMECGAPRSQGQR
Protocol: as §1

[8] = system: T8, Rep nickase domain of tomato golden mosaic virus
T8 sequence (residues 1-124 of Rep, tag left off): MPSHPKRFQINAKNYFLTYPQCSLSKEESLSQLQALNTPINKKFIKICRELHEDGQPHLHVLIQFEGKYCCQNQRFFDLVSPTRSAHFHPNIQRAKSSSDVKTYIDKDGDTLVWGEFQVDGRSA
Protocol: as §1

[9] = system: T9, Rep nickase domain of tomato yellow leaf curl virus
T9 sequence (residues 1-136 of Rep, tag left off): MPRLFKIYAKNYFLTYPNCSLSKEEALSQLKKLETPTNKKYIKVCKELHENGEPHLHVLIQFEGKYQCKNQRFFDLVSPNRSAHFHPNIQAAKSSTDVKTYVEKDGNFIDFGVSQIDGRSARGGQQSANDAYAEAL
Protocol: as §1

[10] = system: T10, Rep nickase domain of wheat dwarf virus
T10 sequence (residues 1-137 of Rep, tag left off): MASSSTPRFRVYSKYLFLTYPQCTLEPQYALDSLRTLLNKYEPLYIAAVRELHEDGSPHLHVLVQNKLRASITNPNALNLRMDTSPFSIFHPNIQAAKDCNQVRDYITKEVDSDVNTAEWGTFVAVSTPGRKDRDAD
Protocol: as §1

Sequence | uncleaved DNA left (log2) [1] | uncleaved DNA left (log2) [2] | uncleaved DNA left (log2) [3] | uncleaved DNA left (log2) [4] | uncleaved DNA left (log2) [5] | uncleaved DNA left (log2) [6] | uncleaved DNA left (log2) [7] | uncleaved DNA left (log2) [8] | uncleaved DNA left (log2) [9] | uncleaved DNA left (log2) [10]
GATTCTC | -1.74 | -0.948 | 0.28 | 0.603 | -0.00408 | 0.879 | -1.54 | -0.0384 | 0.0254 | 0.0819
ACTGGAC | -0.0716 | -0.167 | -0.0667 | 0.634 | -0.0829 | 0.71 | -0.0175 | -0.036 | -0.175 | -0.0501
CACTCCG | 0.0651 | 0.094 | -0.905 | -0.0588 | -0.0573 | -0.725 | 0.1 | -0.0279 | -0.116 | -0.0839
TCTCTTT | 0.0931 | -0.236 | 0.065 | -2.19 | 0.102 | -0.423 | -0.455 | -0.284 | 0.00436 | -0.0146
